Laboratory results as given in PubChem BioAssay AID686979 (National Center for Advancing Translational Sciences (NCATS), 2013).
The whole screen tested about 420,000 compounds, of which about 50,000 (12%) were called active. The shares of active, inactive and inconclusive entries below differ from those in the screen. Calls come from the whole dose curve; as a rule, active = well fitted inhibition curve with a large enough effect; inconclusive = small, poorly fitted or top-dose-only effect; inactive = flat fitted curve, though single readings scatter. No potency is given beside an inconclusive call; the fits are too rough.

Assay: qHTS for Inhibitors of human tyrosyl-DNA phosphodiesterase 1 (TDP1): qHTS in cells in presence of CPT; note: nearly all actives have a fitted effect of over 55% in size
Conditions: chicken DT40 Tdp1-/-;hTDP1 cells + 20 nM CPT, ATP luminescence, 48 h; activity change, negative = growth inhibition: at 46.2 µM (top of the series) unless noted
Procedure, shortened: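 Chicken DT40 Tdp1-/- cells stably complemented with human TDP1 were seeded at 400 cells/well in medium containing 20 nM camptothecin, exposed to pin-transferred compounds, and grown at 37 °C for at least 48 hr. Viability was read as ATP luminescence.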
% is set by controls: 0 for no effect and ±100 for the full control effect; potency is the fitted concentration of half-maximal effect; tags give direction and shape of the fitted curve.

SMILES	Potency	activity change, negative = growth inhibition
COC(=O)c1sccc1NC(=O)CN1CCN(c2ccc(F)cc2)CC1	inconclusive [inhibitor, single point]	
CN(Cc1ccccc1)C(=O)c1cccc(NC(=O)Cc2ccc(NC(=O)C3CCCN(C(=O)C4CCCC4)C3)cc2)c1 (stereo not drawn)	inconclusive [inhibitor, partial curve]	
Cc1ccc(-n2ccc(=O)c(C(=O)Nc3ccc(S(=O)(=O)Nc4nccc(C)n4)cc3)n2)cc1	inconclusive [inhibitor, single point]	
Cc1ccc(C)c(N2CCN(C(=O)CCNC(=O)Cn3ccc4ccccc4c3=O)CC2)c1		inactive: -16.8%
NC(=O)c1cc(S(=O)(=O)NCC2CCC(C(=O)Nc3cccc(Cl)c3)CC2)cs1 (stereo not drawn)		inconclusive: -33.5% [inhibitor]
CCOC(=O)c1cc(-c2ccccc2)n(CCCC(=O)Nc2ccc(CC)cc2)c1C	inconclusive [inhibitor, single point]	
O=C(CSc1ccccc1)NCc1ccco1	inconclusive [inhibitor, single point]	
Cc1c2cnn(-c3ccccc3)c(=O)c2c(C)n1CCCC(=O)Nc1ccc(F)cc1F	inconclusive [inhibitor, single point]	
COCCNC(=O)/C(C#N)=C/c1ccc(OCc2ccc(F)cc2)cc1		inactive: -1.77%
COc1ccc2oc3cc(NCCN(C)C)ccc3c(=O)c2c1	inconclusive [inhibitor, single point]	
Cc1ccc(C#CC[N+]2(CC#Cc3ccc(C)cc3)CCCCC2)cc1	active: 0.461 µM	
COc1cc2c(cc1OC)C(c1ccccc1)N(C(=O)CCl)CC2 (stereo not drawn)	active: 3.26 µM	
O=C(Nc1ccc2c(c1)OCO2)Nc1ccc(Cl)cc1Cl	inconclusive [inhibitor, single point]	
COc1ccc(CN2CCC(Oc3ccc(C(=O)NCc4ccccn4)cc3)CC2)c(F)c1	inconclusive [inhibitor, single point]	
C=CCn1c(Cc2cccs2)nnc1SCC(=O)c1ccc2ccccc2c1	inconclusive [inhibitor, partial curve, poor fit]	
COc1ccc(CC(=O)N2CCCc3ccccc32)cc1		inconclusive: -32.6% [inhibitor]
CN1C(=O)CSc2ccc(NC(=O)N3CCN(c4ccccc4)CC3)cc21	inconclusive [inhibitor, single point]	
O=[N+]([O-])c1ccc(NN=Cc2cccc3ccccc23)cc1	inconclusive [inhibitor, partial curve, poor fit]	
Cc1c(Cl)c([N+](=O)[O-])nn1CCCC(=O)N(Cc1ccccc1)Cc1ccccc1	inconclusive [inhibitor, single point]	
CN(CC(=O)Nc1ccccc1C(=O)NC1CC1)Cc1ccc(Cl)s1	inconclusive [inhibitor, single point]	
Cc1ccc(NC(=O)CSc2nc3ccccc3c3nc(CCn4c(C)nc5ccccc54)nn23)cc1F	active: 8.2 µM	
COc1ccccc1C(=O)NCCC(=O)NCCCSc1ccccc1		inactive: -17.2%
OC(CNCc1ccc(Cl)cc1)(c1ccccc1)c1ccc(F)cc1 (stereo not drawn)	inconclusive [inhibitor, single point]	

SMILES	Potency	activity change, negative = growth inhibition
CCOC(=O)c1ccccc1N/C=C/C(=O)c1cccs1	inconclusive [inhibitor, single point]	
CNc1c([N+](=O)[O-])cnn1-c1ccc(Cl)cc1Cl	inconclusive [inhibitor, single point]	
COc1ccc(CN2CCC3(CC2)c2ccccc2[C@@H](NC(=O)c2ccccc2OC)[C@@H]3O)cc1O	inconclusive [inhibitor, single point]	
O=C(CSc1nc2ccccc2o1)Nc1nccs1		inactive: -0.571%
COc1cc(CN2CCNC(=O)C2CC(=O)NCCc2ncccc2C)cc(OC)c1 (stereo not drawn)		inactive: 26.1%
COc1cccc(CNC(=O)C(C)n2ccc3cc(S(=O)(=O)N4CCCC4)ccc32)c1 (stereo not drawn)	inconclusive [inhibitor, single point]	
Cc1ccc(C(=O)NCC(c2ccco2)N2CCc3ccccc32)cc1C (stereo not drawn)	active: 20.6 µM	
O=C(c1ccc(N2CCCCC2)c([N+](=O)[O-])c1)N1CCN(S(=O)(=O)c2ccccc2)CC1	inconclusive [inhibitor, single point]	
COc1cccc(/C=C(/C(=O)OCC(=O)NCC2CCCO2)c2ccccc2)c1 (stereo not drawn)	inconclusive [inhibitor, single point]	
CCCCn1c(=N)c(S(=O)(=O)c2ccc(Br)cc2)cc2c(=O)n3cccc(C)c3nc21	inconclusive [inhibitor, partial curve]	
Cc1cc(C)cc(CN2C(=O)NC3(CCCCCC3)C2=O)c1		inactive: 8.06%
C=CCNC(=S)NNc1nc2c(c(=O)[nH]1)C1(CCCCC1)Cc1ccccc1-2	inconclusive [inhibitor, single point]	
CCN1C(=O)[C@H]2[C@@H](c3ccc(-c4ccc(OC)cc4)cc3)N3CCC[C@@]3(C(=O)OC)[C@H]2C1=O	inconclusive [inhibitor, single point]	
COc1ccc(CNCC(O)(c2ccccc2)c2ccc(Cl)cc2)cc1 (stereo not drawn)	inconclusive [inhibitor, single point]	
COc1ccc(CN(C)C(=O)c2cccc(NS(=O)(=O)c3ccccc3)c2)cc1F		inactive: -4.29%
CCOC(=O)C1=C(C)N(CCCC(=O)O)C(=O)NC1c1ccccc1OS(=O)(=O)c1ccc(C)cc1 (stereo not drawn)		inactive: -22.6%
Cc1cccc(C(=O)NNS(=O)(=O)c2ccc(F)cc2)c1O	inconclusive [inhibitor, single point]	
CCOc1ccc(OCCOc2ncnc3ccccc23)cc1	inconclusive [inhibitor, partial curve, poor fit]	
CC(C)(C)CNC(=O)C1(C)CCN1C(=O)C1(c2ccccc2)CC1 (stereo not drawn)	inconclusive [inhibitor, partial curve]	
CCOc1ccccc1NS(=O)(=O)c1c(-c2ccc(C)cc2)csc1C(=O)OC	inconclusive [inhibitor, single point]	
CN1C(=O)CC(N2CCN(c3ccccc3)CC2)C1=O (stereo not drawn)		inactive: 1.54%
CCN(c1ccccc1)S(=O)(=O)c1ccc(NN)nc1	inconclusive [inhibitor, single point]	
COc1ccc(-c2cc(C(F)(F)F)nc(N3CCOCC3)n2)cc1OC	inconclusive [inhibitor, partial curve]	

SMILES	Potency	activity change, negative = growth inhibition
CCOC(=O)c1cc(-c2ccccc2)n(CC(=O)NCc2ccccc2OC)c1C	active: 16.4 µM	
O=C1NC[C@H](Cc2ccccc2)N(C[C@H]2CCCN2C[C@H](Cc2ccccc2)N2C[C@H](Cc3ccc(O)cc3)N(CC3CCCCCC3)C(=O)C2=O)C1=O	inconclusive [inhibitor, single point]	
COc1ccccc1OCC(=O)Nc1cc(C(F)(F)F)ccc1-n1cncn1		inactive: -3.7%
Cc1ccc(N(C)C(=O)C2CCCN2S(=O)(=O)c2cccc3nsnc23)cc1 (stereo not drawn)	inconclusive [inhibitor, single point]	
COCCNC(=O)c1ccc2c(c1)N(Cc1cccc(Cl)c1)C(=O)c1ccccc1S2=O (stereo not drawn)	inconclusive [inhibitor, single point]	
Cc1csc(=O)n1CC(=O)Nc1ccc(Cl)c(Cl)c1		inactive: -28.7%
COc1ccc([C@H]2C[C@H](O)[C@@H](n3cc(-c4ccc(F)cc4)nn3)CN2Cc2cccs2)cc1	active: 5.17 µM	
C=C1CCN([C@@H](Cc2ccccc2)C(=O)NCc2ccc(Cl)cc2)S(=O)(=O)c2ccccc21	inconclusive [inhibitor, single point]	
COc1cccc(NC(=O)COC(=O)/C=C/c2ccco2)c1		inactive: -23%
COc1ccc(C)cc1NC(=O)NC1CCCc2ccccc21 (stereo not drawn)		inactive: -5.08%
CC(C)(C)NC(=O)C(c1c[nH]c2ccccc12)N(C(=O)Cn1nnc(-c2ccc(Cl)cc2)n1)c1ccccc1F (stereo not drawn)	inconclusive [inhibitor, single point]	
COc1ccc(Cl)cc1NC(=O)COC(=O)c1ccc(C)o1		inactive: -5.38%
CCN1C(=O)CSC1=NC12CC3CC(CC(C3)C1)C2	inconclusive [inhibitor, single point]	
Fc1ccc(CNc2ncnc3c2c(-c2ccccc2)cn3-c2ccccc2)cc1	inconclusive [inhibitor, single point]	
CCCC(=O)Nc1nc2c(OC)ccc(OC)c2s1		inactive: -27.9%
COc1cc(Cl)ccc1OCc1cc(C(=O)N(C)Cc2cn(C)nc2C)no1	inconclusive [inhibitor, single point]	
CCOC(=O)C1=CCN(S(=O)(=O)c2ccc(Br)cc2)C1c1cccc(C)c1 (stereo not drawn)	inconclusive [inhibitor, single point]	
CCN1C/C(=C/c2ccc(N3CCOCC3)cc2)C(=O)/C(=C/c2ccc(N3CCOCC3)cc2)C1	inconclusive [inhibitor, single point]	
Cc1ccc(C)c(N2CCN(C(=O)CN3C(=O)CSc4c3c(C)nn4-c3ccccc3)CC2)c1	active: 18.4 µM	
CCNC(=O)C1CCCN(C(=O)c2ccc(OC)cc2)CC1 (stereo not drawn)		inactive: -0.31%
CNC(=S)N(CCc1c(C)[nH]c2ccc(F)cc12)Cc1cccnc1		inactive: -9.74%
CC1(Cc2ccc(Cl)cc2)C(=O)Nc2ccc(-c3ccc(F)c(Cl)c3)cc21 (stereo not drawn)	inconclusive [inhibitor, single point]	
